# From the supplement of paper PMC8728848
# This is one part of the list.
# B1: PX9961T-pdi-555-33-555 (Parabacteroides distasonis) (protein)
# chain: FDEETAFQSPTLVYVNTVASLYNNMFKIMGNDRHVYDLNTFSSDEAMLPCRIGDWEDGGLWQNIFLHRWGTMNDLTKNSWDFLYEQIGKCNQSVDKLQAFAEEQPDVEYFKVYLEEVRAVRAFFYYELLDLFARVPLVTSSTTPMSEVKQSERSVVFNFVRSELEEALPYLSDNRSNQKGEYYGRITKPVAYMILAKLALNAEVYADDNWTDGNRPAGKNIKFTVDGKEMNAWEATIAYVDKLEALGYKLQGNFSENFAVANETSVENIFTVPMDPVAYPDAKDYNLVRTRHYDHATAYGQSGWNGSCATVKAMNVFKFGTADEDPRCKLTYFTGEVTGPDGKTIYTEWDGQKVPLKYEPNAPKVYMDASDGLLVKTAGARMAKYEFDQNAQDGGNLHGNDCVIFRFADALLMKAEAKIRLGQNGDDEVNQVRNRVGAKPLQNVTLDTLLDERMLELAWEGVRRQDLIRFGKFTEATVDRYVGVKHFASSLDYQEDKTGYTTVFSIYADILSLNPNLTQNPGY
# What was measured:
# Assay in all cases: glycan array binding signal (z-score within array); higher = stronger binding
# Conditions in all cases: glycan notation: IUPAC condensed, linker removed
# [1] = biological target: Gal(b1-4)GlcNAc(b1-3)Gal(b1-4)GlcNAc(b1-3)Gal(b1-4)GlcNAc(b1-3)Gal(b1-4)GlcNAc(b1-2)Man(a1-3)[Gal(b1-4)GlcNAc(b1-3)Gal(b1-4)GlcNAc(b1-3)Gal(b1-4)GlcNAc(b1-3)Gal(b1-4)GlcNAc(b1-2)Man(a1-6)]Man(b1-4)GlcNAc(b1-4)[Fuc(a1-6)]GlcNAc
# How it was run: (§1)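 The binding signal is a Z-score computed within each array. Data were drawn from 3228 arrays in the Consortium for Functional Glycomics database, restricted to those with a known protein sequence. Scores were averaged over arrays of the same protein sequence at different concentrations or buffers, and over linkers, and negative values can be taken as non-binding.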
# [2] = biological target: Gal(b1-4)GlcNAc(b1-3)Gal(b1-4)GlcNAc(b1-3)Gal(b1-4)GlcNAc(b1-3)Gal(b1-4)GlcNAc(b1-2)[Gal(b1-4)GlcNAc(b1-3)Gal(b1-4)GlcNAc(b1-3)Gal(b1-4)GlcNAc(b1-3)Gal(b1-4)GlcNAc(b1-6)]Man(a1-6)[Gal(b1-4)GlcNAc(b1-3)Gal(b1-4)GlcNAc(b1-3)Gal(b1-4)GlcNAc(b1-3)Gal(b1-4)GlcNAc(b1-2)Man(a1-3)]Man(b1-4)GlcNAc(b1-4)[Fuc(a1-6)]GlcNAc
# How it was run: as §1
# [3] = biological target: Gal(b1-4)GlcNAc(b1-3)Gal(b1-4)GlcNAc(b1-3)Gal(b1-4)GlcNAc(b1-3)Gal(b1-4)GlcNAc(b1-3)Gal(b1-4)GlcNAc(b1-2)Man(a1-3)[Gal(b1-4)GlcNAc(b1-3)Gal(b1-4)GlcNAc(b1-3)Gal(b1-4)GlcNAc(b1-3)Gal(b1-4)GlcNAc(b1-3)Gal(b1-4)GlcNAc(b1-2)Man(a1-6)]Man(b1-4)GlcNAc(b1-4)GlcNAc
# How it was run: as §1
# [4] = biological target: Gal(b1-4)GlcNAc(b1-3)Gal(b1-4)GlcNAc(b1-3)Gal(b1-4)GlcNAc(b1-3)Gal(b1-4)GlcNAc(b1-3)Gal(b1-4)GlcNAc(b1-2)Man(a1-3)[Gal(b1-4)GlcNAc(b1-3)Gal(b1-4)GlcNAc(b1-3)Gal(b1-4)GlcNAc(b1-3)Gal(b1-4)GlcNAc(b1-3)Gal(b1-4)GlcNAc(b1-2)Man(a1-6)]Man(b1-4)GlcNAc(b1-4)[Fuc(a1-6)]GlcNAc
# How it was run: as §1
# [5] = biological target: Gal(b1-4)GlcNAc(b1-3)Gal(b1-4)GlcNAc(b1-3)Gal(b1-4)GlcNAc(b1-3)Gal(b1-4)GlcNAc(b1-3)Gal(b1-4)GlcNAc(b1-2)[Gal(b1-4)GlcNAc(b1-3)Gal(b1-4)GlcNAc(b1-3)Gal(b1-4)GlcNAc(b1-3)Gal(b1-4)GlcNAc(b1-3)Gal(b1-4)GlcNAc(b1-6)]Man(a1-6)[Gal(b1-4)GlcNAc(b1-3)Gal(b1-4)GlcNAc(b1-3)Gal(b1-4)GlcNAc(b1-3)Gal(b1-4)GlcNAc(b1-3)Gal(b1-4)GlcNAc(b1-2)Man(a1-3)]Man(b1-4)GlcNAc(b1-4)[Fuc(a1-6)]GlcNAc
# How it was run: as §1
# [6] = biological target: Gal(b1-4)GlcNAc(b1-3)Gal(b1-4)GlcNAc(b1-3)Gal(b1-4)GlcNAc(b1-3)Gal(b1-4)GlcNAc(b1-3)Gal(b1-4)GlcNAc(b1-3)Gal(b1-4)GlcNAc(b1-2)Man(a1-3)[Gal(b1-4)GlcNAc(b1-3)Gal(b1-4)GlcNAc(b1-3)Gal(b1-4)GlcNAc(b1-3)Gal(b1-4)GlcNAc(b1-3)Gal(b1-4)GlcNAc(b1-3)Gal(b1-4)GlcNAc(b1-2)Man(a1-6)]Man(b1-4)GlcNAc(b1-4)GlcNAc
# How it was run: as §1
# [7] = biological target: Gal(b1-4)GlcNAc(b1-3)Gal(b1-4)GlcNAc(b1-3)GalNAc
# How it was run: as §1
# [8] = biological target: Gal(b1-4)GlcNAc(b1-3)Gal(b1-4)GlcNAc(b1-3)[Gal(b1-4)GlcNAc(b1-3)Gal(b1-4)GlcNAc(b1-6)]GalNAc
# How it was run: as §1
# [9] = biological target: Gal(b1-4)GlcNAc(b1-3)Gal(b1-4)GlcNAc(b1-6)[Gal(b1-3)]GalNAc
# How it was run: as §1
# [10] = biological target: Gal(b1-4)GlcNAc(b1-3)Gal(b1-4)[Fuc(a1-3)]GlcNAc(b1-3)Gal(b1-4)[Fuc(a1-3)]GlcNAc
# How it was run: as §1
# [11] = biological target: Gal(b1-4)GlcNAc(b1-3)GalNAc
# How it was run: as §1
# [12] = biological target: Gal(b1-4)GlcNAc(b1-3)[Fuc(a1-3)GlcNAc(b1-6)]Gal(b1-4)Glc
# How it was run: as §1
# [13] = biological target: Gal(b1-4)GlcNAc(b1-3)[Gal(b1-4)GlcNAc(b1-6)]Gal(b1-4)GlcNAc
# How it was run: as §1
# [14] = biological target: Gal(b1-4)GlcNAc(b1-3)[GlcNAc(b1-6)]Gal(b1-4)GlcNAc
# How it was run: as §1
# [15] = biological target: Gal(b1-4)GlcNAc(b1-6)Gal(b1-4)GlcNAc
# How it was run: as §1
# [16] = biological target: Gal(b1-4)GlcNAc(b1-6)GalNAc
# How it was run: as §1
# [17] = biological target: Gal(b1-4)GlcNAc(b1-6)[Gal(b1-3)]GalNAc
# How it was run: as §1
# [18] = biological target: Gal(b1-4)GlcNAc(b1-6)[Gal(b1-4)GlcNAc(b1-3)]GalNAc
# How it was run: as §1
# [19] = biological target: Gal(b1-4)GlcNAc6P
# How it was run: as §1
# [20] = biological target: Gal(b1-6)Gal
# How it was run: as §1
# [21] = biological target: Gal3S(b1-3)GalNAc
# How it was run: as §1
# [22] = biological target: Gal3S(b1-3)GlcNAc
# How it was run: as §1
# [23] = biological target: Gal3S(b1-3)[Fuc(a1-4)]GlcNAc
# How it was run: as §1
# [24] = biological target: Gal3S(b1-4)Glc
# How it was run: as §1
# [25] = biological target: Gal3S(b1-4)Glc6S
# How it was run: as §1
# [26] = biological target: Gal3S(b1-4)GlcNAc
# How it was run: as §1
# [27] = biological target: Gal3S(b1-4)[Fuc(a1-3)]Glc6S
# How it was run: as §1
# [28] = biological target: Gal3S(b1-4)[Fuc(a1-3)]GlcNAc
# How it was run: as §1
# [29] = biological target: Gal3S(b1-4)[Fuc(a1-3)]GlcNAc6S
# How it was run: as §1
# [30] = biological target: Gal3S4S(b1-4)GlcNAc
# How it was run: as §1
# [31] = biological target: Gal3S6S(b1-4)GlcNAc
# How it was run: as §1
# [32] = biological target: Gal3S6S(b1-4)GlcNAc6S
# How it was run: as §1
# [33] = biological target: Gal4S(b1-4)GlcNAc
# How it was run: as §1
# [34] = biological target: Gal4S6S(b1-4)GlcNAc
# How it was run: as §1
# [35] = biological target: Gal6P(b1-4)GlcNAc
# How it was run: as §1
# [36] = biological target: Gal6S(b1-3)GlcNAc
# How it was run: as §1
# [37] = biological target: Gal6S(b1-3)GlcNAc6S
# How it was run: as §1
# [38] = biological target: Gal6S(b1-4)Glc
# How it was run: as §1
binder,measurement,setting,value
B1,glycan array binding signal (z-score),[1],0.109
same,glycan array binding signal (z-score),[2],-0.108
same,glycan array binding signal (z-score),[3],0.135
same,glycan array binding signal (z-score),[4],-0.259
same,glycan array binding signal (z-score),[5],0.047
same,glycan array binding signal (z-score),[6],-0.44
same,glycan array binding signal (z-score),[7],0.322
same,glycan array binding signal (z-score),[8],0.263
same,glycan array binding signal (z-score),[9],-0.032
same,glycan array binding signal (z-score),[10],-0.637
same,glycan array binding signal (z-score),[11],-0.356
same,glycan array binding signal (z-score),[12],0.001
same,glycan array binding signal (z-score),[13],-0.204
same,glycan array binding signal (z-score),[14],-0.222
same,glycan array binding signal (z-score),[15],-0.249
same,glycan array binding signal (z-score),[16],-0.746
same,glycan array binding signal (z-score),[17],-0.234
same,glycan array binding signal (z-score),[18],0.248
same,glycan array binding signal (z-score),[19],-0.433
same,glycan array binding signal (z-score),[20],-0.456
same,glycan array binding signal (z-score),[21],0.125
same,glycan array binding signal (z-score),[22],0.012
same,glycan array binding signal (z-score),[23],-0.33
same,glycan array binding signal (z-score),[24],-0.108
same,glycan array binding signal (z-score),[25],0.164
same,glycan array binding signal (z-score),[26],0.365
same,glycan array binding signal (z-score),[27],0.593
same,glycan array binding signal (z-score),[28],0.902
same,glycan array binding signal (z-score),[29],0.154
same,glycan array binding signal (z-score),[30],-0.89
same,glycan array binding signal (z-score),[31],0.349
same,glycan array binding signal (z-score),[32],-0.33
same,glycan array binding signal (z-score),[33],-0.13
same,glycan array binding signal (z-score),[34],0.324
same,glycan array binding signal (z-score),[35],0.026
same,glycan array binding signal (z-score),[36],-0.657
same,glycan array binding signal (z-score),[37],0.629
same,glycan array binding signal (z-score),[38],0.13
